Experimental data taken from PubChem BioAssay AID1963576 (National Center for Advancing Translational Sciences (NCATS), 2024).
Out of some 46,000 compounds screened, about 60 (0.1%) were called active. About 3% were inconclusive and are not listed. The call rests on the fitted dose curve; in most records, active means well fitted inhibition curve with a large enough effect; inconclusive means small, poorly fitted or top-dose-only effect; inactive means no such curve, though single readings can be large or run the other way. The list shows a part of the results.

assay: Primary qHTS assay for Inhibitors of ovarian cancer metastasis using an organotypic tumor microenvironment (TME) model.; further: nearly all actives have a fitted effect of over 65% in size;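 on Potency: count of GFP cancer cells still attached after washing and fixation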;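 on activity change, negative = inhibition: plate controls were DMSO wells for no effect and tomatine positive control wells for full effect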; settings: SKOV3ip1-GFP adhesion/invasion on 3D omental model, fluorescence; series mostly up to 45.8 µM; activity change, negative = inhibition: at the top concentration
How it was run: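 Adhesion/invasion was scored as fixed GFP-labeled SKOV3ip1 cell counts (488/509 nm), normalized to DMSO and tomatine controls. Cancer cells in serum-free medium, with four compound doses (0.36-46 umol/L), sat 2 hr at RT then 16 hr at 37 C on a 48 hr fibroblast/mesothelial/ECM culture.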
Potency means the concentration at half of the fitted maximal effect.

Row | Compound | activity change, negative = inhibition | outcome | Potency
1 | CC(C)n1c(=N)c(C(=O)NC2CCCCC2)cc2c(=O)n3ccccc3nc21 | inactive: 9.25% | – | –
2 | COc1ccc(NC(=O)C(=O)NCc2ccco2)cc1 | inactive: -4.16% | – | –
3 | CCN(CCCNC(=O)Cn1ncc2c([nH]c3ccc(C)cc32)c1=O)Cc1ccccc1 | inactive: 2.08% | – | –
4 | CC(N[C@H]1CCCC[C@H]1NC(=O)c1ccc(Cl)cc1)c1cccc2ccccc12 (stereo not given in full) | inactive: -11.8% | – | –
5 | CCSc1nn(CC(=O)Nc2cccc(Cl)c2)c(N)c1S(=O)(=O)c1ccc(OC)cc1 | inactive: -18.6% | – | –
6 | COc1ccc(OC)c(-c2noc(N3CCN(c4cccc(C)c4C)CC3)n2)c1 | inactive: -3.89% | – | –
7 | COc1cccc(CN(C(=O)c2cccc(C)c2)C2CCS(=O)(=O)C2)c1 (stereo not given) | inactive: -4.62% | – | –
8 | CC(=O)c1ccc(NC(=O)Cn2nc(C(F)(F)F)c3c2CCCC3)cc1 | inactive: -10.4% | – | –
9 | CCCN(CCC)C(=O)Cn1c(=O)n(Cc2ccc(C(=O)NCCc3ccc(Cl)cc3)cc2)c(=O)c2ccccc21 | inactive: 40.6% | – | –
10 | COc1ccccc1Cn1cc(C(=O)c2ccc(C)cc2)c(=O)c2cc(F)cc(F)c21 | inactive: 1.95% | – | –
11 | CC(C)CC(=O)Nc1nnc(S(=O)(=O)N2CCc3ccccc32)s1 | inactive: 3.49% | – | –
12 | Cc1ccc(-n2nc3c(=O)n(CCCC(=O)NC(C)c4ccccc4)nc(C)c3c2C)cc1 (stereo not given) | inactive: 0.536% | – | –
13 | CCOC(=O)/C(C#N)=C/c1ccc(-c2ccc(C)cc2)o1 | – | inactive | –
14 | Cc1ccc2oc(C(=O)Nc3sc4c(c3C(=O)NCc3cccnc3)CCCC4)cc(=O)c2c1 | inactive: -8.86% | – | –
15 | COC(=O)c1ccccc1NC(=O)C1=C(C)C(=O)OC12CCC(C)CC2 (stereo not given) | inactive: -6.76% | – | –
16 | COC(=O)CC1Oc2ccc(C)cc2-n2cc(-c3ccc(C)cc3)nc21 (stereo not given) | inactive: 5.36% | – | –
17 | Cc1ccc(CSc2oc(-c3cccs3)nc2S(=O)(=O)c2ccc(C)cc2)cc1 | inactive: 2.23% | – | –
18 | COc1ccc(-c2nc(SCC(=O)Nc3ccc4c(c3)OCCO4)c(-c3ccccc3)[nH]2)cc1 | inactive: -23.2% | – | –
19 | CCc1ccc(NC(=O)Cn2c(=O)n(-c3cc(C)cc(C)c3)c(=O)c3oc4ccccc4c32)cc1 | inactive: -3.87% | – | –
20 | CCOc1ccc(CCNC(=O)CSc2cc(=O)n(C)c3ccc(Cl)cc23)cc1OCC | – | inactive | –
21 | COc1ccccc1NS(=O)(=O)c1cc2c(cc1Cl)NC(=O)CO2 | inactive: -8.27% | – | –
22 | CN(C)S(=O)(=O)c1ccc(C(=O)Nc2ccc(-n3nncc3-c3ccccc3)cc2)cc1 | inactive: -4.07% | – | –
23 | COc1ccccc1N1CCN(C(=O)Cn2ncc3c(=O)oc4ccc(C)cc4c32)CC1 | – | inactive | –

Row | Compound | activity change, negative = inhibition | outcome | Potency
24 | Cc1cccc(N2CCN(C(=O)CCSCc3ccccc3F)CC2)c1C | – | inactive | –
25 | CCN1C(=O)C2(c3ccccc31)c1c(oc3ccc(F)cc3c1=O)C(=O)N2CCCOC (stereo not given) | – | inactive | –
26 | Cc1ccc(NC(=O)CSc2ccc(-c3sc(-c4ccccc4)nc3C)nn2)cc1F | – | inactive | –
27 | CC(C)Oc1ccc(CNC(=O)c2ccc(Cn3c(=O)c4cccn4c4cccnc43)cc2)cc1 | – | inactive | –
28 | CCCc1cnc2c(c1SCc1ccc(C(F)(F)F)cc1)c(=O)n(C)c(=O)n2C | inactive: 1.59% | – | –
29 | CCN1CCN(c2cc(C)c3cc(NC(=O)c4cc(Cl)ccc4OC)ccc3n2)CC1 | – | – | active: 3.55 µM
30 | Cc1nn2c(=O)cc(COC(=O)CNC(=O)c3ccc(F)cc3)nc2s1 | inactive: 4.53% | – | –
31 | COc1ccc(C2=NC(C)(C)N(CC(=O)Nc3ccc(F)c(F)c3)C2=O)cc1 | inactive: -8.54% | – | –
32 | Cc1ccc(N(Cc2cccs2)C(=O)COc2cccc(C)c2)cc1 | – | inactive | –
33 | COc1ccc(-c2nsc(NC(=O)c3oc4cc(C)c(C)cc4c3C)n2)cc1 | inactive: -3.48% | – | –
34 | Cc1cccc(CNC(=O)c2cnc3sc(N4CCCCCC4)nn3c2=O)c1 | – | inactive | –
35 | CC(=O)c1ccc(NC(=O)Cn2c(=O)n(Cc3ccco3)c(=O)c3sc4ccccc4c32)cc1 | – | inactive | –
36 | Cc1ccc(NC(=O)c2c(C)nc3sc(C(=O)Nc4ccc(F)cc4)c(N)c3c2-c2ccccc2Cl)c(C)c1 | inactive: -15.8% | – | –
37 | COc1cccc(OC)c1C(=O)Nc1ccc(S(=O)(=O)Nc2nccc(C)n2)cc1 | – | inactive | –
38 | Cc1ccc(-n2ncc(C(=O)NCCCN3CCCCC3)c2C2CCN(C(=O)OC(C)(C)C)CC2)cc1 | – | inactive | –
39 | COc1ccccc1C(=O)Nc1nnc(S(=O)(=O)N(C)c2ccc(Cl)cc2)s1 | – | inactive | –
40 | COc1ccc(Cl)cc1NC(=O)c1ccc2c(c1)CCCN2S(C)(=O)=O | inactive: 0.898% | – | –
41 | CCOc1ccc(CN2CCN(c3ncnc4sc5c(c34)CC(C)CC5)CC2)cc1 (stereo not given) | inactive: -1.39% | – | –
42 | CCc1ccc(S(=O)(=O)c2cn(CC)c3cc(N4CCOCC4)c(F)cc3c2=O)cc1 | – | inactive | –
43 | CC(=O)c1ccc(NC(=O)Cn2cc3c(n2)CCCC3)cc1 | inactive: 5.33% | – | –
44 | O=C(O)c1cc(-c2ccc(C(F)(F)F)cc2)nc2n[nH]c(-c3ccccc3)c12 | inactive: -11.8% | – | –
45 | Cc1nc(-c2ccccc2)sc1CCNS(=O)(=O)c1ccccc1 | – | inactive | –
